Where “and” joins values, the source holds several entries; their conditions need not be identical. Equal values may be shown once. Where a name gives a salt, the structure may show the parent alone. The campaign covered roughly 5,800 compounds. About 620 (11%) showed activity.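 The calls were made as follows: active = score above a cut-off or among the top three wells of a plate; in these data no inactive exceeds 0.85.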 Only a part is listed here, and it is no random draw.
Test system: primary human hepatic stellate cells (donor 1)
Assay: scaled lipid accumulation score (0 = DMSO-like, 1 = nortriptyline-like); higher = stronger HSC inactivation (lipid re-accumulation), active = hit call of the paper
Conditions: 48 h
[1] = library stock concentration: 10 mM
[2] = library stock concentration: 80 uM
[3] = library stock concentration: 400 uM
[4] = library stock concentration: 2 mM
[5] = library stock concentration: 1 mM
[6] = library stock concentration: 3.33 mM
[7] = library stock concentration: 6.4 mM

Question: How did the “scaled lipid accumulation score” value [1] turn out when `COC(=O)C1=C(C)NC(C)=C(C(=O)OC)C1c1cccc(NC(=O)NCCCN2CCC(c3cccc(OC)c3)CC2)c1` was run?
Answer: inactive: 0.68

Question: How did the “scaled lipid accumulation score” value [2] turn out when `O=C(O)CCNc1cc(N2CCc3ccccc3CC2)nc(-c2ccccn2)n1` was run?
Answer: inactive: ≤ 0

Question: What about the “scaled lipid accumulation score” value [3] of the same compound?
Answer: inactive: ≤ 0

Question: What about the “scaled lipid accumulation score” value [4] of the same compound?
Answer: inactive: ≤ 0

Question: What about the “scaled lipid accumulation score” value [1] of the same compound?
Answer: inactive: ≤ 0

Question: For `CSC(N)=NCCC[C@@H](N)C(=O)O` [S-methyl-L-Thiocitrulline (hydrochloride)], which “scaled lipid accumulation score” value [5] is on record?
Answer: inactive: ≤ 0

Question: With `C=CC[C@@H]1/C=C(\C)C[C@H](C)C[C@H](OC)[C@H]2O[C@@](O)(C(=O)C(=O)N3CCCC[C@H]3C(=O)O[C@H](/C(C)=C/[C@@H]3CC[C@@H](O)[C@H](OC)C3)[C@H](C)[C@@H](O)CC1=O)[C@H](C)C[C@@H]2OC` [Tacrolimus (FK506)] as the compound, how does the “scaled lipid accumulation score” value [6] read?
Answer: inactive: 0.015

Question: And the “scaled lipid accumulation score” value [1]?
Answer: inactive: 0.062

Question: How did the “scaled lipid accumulation score” value [5] turn out when `C=CC[C@@H]1/C=C(\C)C[C@H](C)C[C@H](OC)[C@H]2O[C@@](O)(C(=O)C(=O)N3CCCC[C@H]3C(=O)O[C@H](/C(C)=C/[C@@H]3CC[C@@H](O)[C@H](OC)C3)[C@H](C)[C@@H](O)CC1=O)[C@H](C)C[C@@H]2OC` was run?
Answer: inactive: 0.047

Question: And the “scaled lipid accumulation score” value (library stock concentration: 6.2 mM)?
Answer: inactive: ≤ -0.012

Question: And the “scaled lipid accumulation score” value [1]?
Answer: inactive: ≤ 0

Question: Which results are given for `CN(C)Cc1cccc(N=C(c2ccccc2)c2c(O)[nH]c3cc(C(N)=O)ccc23)c1`?
Answer: scaled lipid accumulation score [2]: inactive: ≤ -0.001; scaled lipid accumulation score [3]: inactive: ≤ -0.001; scaled lipid accumulation score [4]: inactive: ≤ -0.001; scaled lipid accumulation score [6]: inactive: ≤ 0; scaled lipid accumulation score [1]: inactive: 0.659 and inactive: 0.686

Question: For `NC[C@H]1O[C@H](O[C@H]2[C@H](O[C@@H]3O[C@H](CO)[C@@H](O)[C@H]3O)[C@@H](O)[C@H](N)C[C@@H]2N)[C@H](N)[C@@H](O)[C@@H]1O` [Ribostamycin sulfate salt], which “scaled lipid accumulation score” value is on record?
Answer: inactive: ≤ 0

Question: `NC[C@H]1O[C@H](O[C@H]2[C@H](O[C@@H]3O[C@H](CO)[C@@H](O)[C@H]3O)[C@@H](O)[C@H](N)C[C@@H]2N)[C@H](N)[C@@H](O)[C@@H]1O` [Ribostamycin sulfate] was tested. Which “scaled lipid accumulation score” value [1] did it give?
Answer: inactive: ≤ -0.027

Question: Which “scaled lipid accumulation score” value [1] does the source give for `O=Nc1c(-c2c(O)[nH]c3ccccc23)[nH]c2ccccc12` [Indirubin-3'-oxime] here?
Answer: inactive: 0.592 and inactive: 0.041

Question: With `O=Nc1c(-c2c(O)[nH]c3ccccc23)[nH]c2ccccc12` [Indirubin-3'-monoxime] as the compound, how does the “scaled lipid accumulation score” value [6] read?
Answer: inactive: 0.086

Question: What about the “scaled lipid accumulation score” value (library stock concentration: 18 mM) of the same compound?
Answer: inactive: 0.142

Question: Which “scaled lipid accumulation score” value [6] does the source give for `Cc1ccc(C(=O)c2cc(O)c(O)c([N+](=O)[O-])c2)cc1` [Tolcapone] here?
Answer: inactive: ≤ 0

Question: What about the “scaled lipid accumulation score” value (library stock concentration: 7.3 mM) of the same compound?
Answer: inactive: ≤ -0.006

Question: And the “scaled lipid accumulation score” value [1]?
Answer: inactive: 0.036

Question: Which “scaled lipid accumulation score” value does the source give for `COc1ccc2[nH]cc(CCNC(C)=O)c2c1` [Melatonin] here?
Answer: inactive: ≤ 0

Question: And the “scaled lipid accumulation score” value [6]?
Answer: inactive: ≤ 0

Question: And the “scaled lipid accumulation score” value (library stock concentration: 8.6 mM)?
Answer: inactive: ≤ -0.006

Question: What about the “scaled lipid accumulation score” value [1] of the same compound?
Answer: inactive: ≤ 0 and inactive: ≤ -0.055 and inactive: ≤ -0.001

Question: How did the “scaled lipid accumulation score” value [6] turn out when `O=C([O-])c1ccccc1O.[Na+]` [Sodium salicylate] was run?
Answer: inactive: ≤ 0

Question: What about the “scaled lipid accumulation score” value [1] of the same compound?
Answer: inactive: ≤ -0.001 and inactive: ≤ 0

Question: How did the “scaled lipid accumulation score” value [7] turn out when `CN1C2CCCC1CC(NC(=O)c1nn(C)c3ccccc13)C2` (stereo not drawn) [Granisetron] was run?
Answer: inactive: ≤ -0.006

Question: Which “scaled lipid accumulation score” value [1] does the source give for `CN1C2CCCC1CC(NC(=O)c1nn(C)c3ccccc13)C2` (stereo not drawn) [Granisetron hydrochloride] here?
Answer: inactive: 0.034

Question: How did the “scaled lipid accumulation score” value [1] turn out when `CN1C2CCCC1CC(NC(=O)c1nn(C)c3ccccc13)C2` (stereo not drawn) was run?
Answer: inactive: ≤ 0

Question: For `COc1cc2c(Oc3ccc4[nH]c(C)cc4c3F)ncnc2cc1OCCCN1CCCC1` [Cediranib], which “scaled lipid accumulation score” value [4] is on record?
Answer: active: 1.06

Question: How did the “scaled lipid accumulation score” value turn out when `CC(C)N1CCN(c2ccc(OCC3COC(Cn4cncn4)(c4ccc(Cl)cc4Cl)O3)cc2)CC1` (stereo not drawn) [Terconazole] was run?
Answer: inactive: 0.168

Question: For `Clc1ccc2c(c1)N=C(N1CCNCC1)c1ccccc1N2` [N-Desmethylclozapine], which “scaled lipid accumulation score” value [1] is on record?
Answer: active: 0.941

Question: How did the “scaled lipid accumulation score” value turn out when `O=C(NCCNCC(O)COc1ccc(O)cc1)N1CCOCC1` (stereo not drawn) [Xamoterol hemifumarate] was run?
Answer: inactive: ≤ 0

Question: What about the “scaled lipid accumulation score” value (library stock concentration: 5.9 mM) of the same compound?
Answer: inactive: ≤ -0.006

Question: What about the “scaled lipid accumulation score” value [1] of the same compound?
Answer: inactive: ≤ 0

Question: With `N=C(N)c1ccccc1` [Benzamidine hydrochloride] as the compound, how does the “scaled lipid accumulation score” value [1] read?
Answer: inactive: 0.009

Question: How did the “scaled lipid accumulation score” value turn out when `CCN(Cc1ccncc1)C(=O)C(CO)c1ccccc1` (stereo not drawn) [Tropicamide] was run?
Answer: inactive: ≤ 0

Question: And the “scaled lipid accumulation score” value [6]?
Answer: inactive: ≤ 0

Question: And the “scaled lipid accumulation score” value (library stock concentration: 7 mM)?
Answer: inactive: ≤ -0.006 and inactive: ≤ 0

Question: What about the “scaled lipid accumulation score” value [1] of the same compound?
Answer: inactive: ≤ 0 and inactive: 0.018

Question: Which results are given for `Cc1ncc([N+](=O)[O-])n1CCO` [Metronidazole]?
Answer: scaled lipid accumulation score: inactive: ≤ 0; scaled lipid accumulation score [6]: inactive: ≤ 0; scaled lipid accumulation score [1]: inactive: ≤ 0

Question: Which “scaled lipid accumulation score” value [1] does the source give for `Cc1ncc([N+](=O)[O-])n1CCO` here?
Answer: inactive: ≤ 0

Question: How did the “scaled lipid accumulation score” value turn out when `CCN(CC)CC#CCOC(=O)C(O)(c1ccccc1)C1CCCCC1` (stereo not drawn) [Oxybutynin chloride] was run?
Answer: inactive: 0.397

Question: And the “scaled lipid accumulation score” value [6]?
Answer: inactive: 0.234

Question: And the “scaled lipid accumulation score” value (library stock concentration: 5.1 mM)?
Answer: inactive: 0.317

Question: What about the “scaled lipid accumulation score” value [1] of the same compound?
Answer: inactive: 0.48

Question: What does the source list for `OC(CCN1CCCCC1)(c1ccccc1)C1CC2C=CC1C2` (stereo not drawn) [Biperiden hydrochloride]?
Answer: scaled lipid accumulation score: inactive: 0.546; scaled lipid accumulation score [1]: inactive: 0.783

Question: With `OC(CCN1CCCCC1)(c1ccccc1)C1CC2C=CC1C2` (stereo not drawn) [Biperiden] as the compound, how does the “scaled lipid accumulation score” value [7] read?
Answer: inactive: 0.408

Question: With `OC(CCN1CCCCC1)(c1ccccc1)C1CC2C=CC1C2` (stereo not drawn) [Biperiden HCl] as the compound, how does the “scaled lipid accumulation score” value [6] read?
Answer: inactive: ≤ 0

Question: And the “scaled lipid accumulation score” value [1]?
Answer: inactive: 0.114

Question: Which results are given for `CC(=O)O/N=C1\C(=O)N(Cc2cc(Cl)ccc2Cl)c2ccc(Cl)cc21`?
Answer: scaled lipid accumulation score [6]: inactive: ≤ -0.009; scaled lipid accumulation score [1]: inactive: ≤ 0

Question: What does the source list for `C#CCN(C)Cc1ccccc1` [Pargyline hydrochloride]?
Answer: scaled lipid accumulation score: inactive: ≤ 0; scaled lipid accumulation score [1]: inactive: ≤ 0

Question: With `C#CCN(C)Cc1ccccc1` [Pargyline (hydrochloride)] as the compound, how does the “scaled lipid accumulation score” value [5] read?
Answer: inactive: 0.018

Question: With `O=c1[nH]c2ccccc2c2ccccc12` [6(5H)-Phenanthridinone] as the compound, how does the “scaled lipid accumulation score” value [1] read?
Answer: inactive: ≤ 0

Question: And the “scaled lipid accumulation score” value (library stock concentration: 25.6 mM)?
Answer: inactive: 0.055

Question: With `C=CC(=O)Nc1cc(Nc2nccc(-c3cn(C)c4ccccc34)n2)c(OC)cc1N(C)CCN(C)C` as the compound, how does the “scaled lipid accumulation score” value [4] read?
Answer: active: 1.01

Question: With `CCCCCC(=O)/C=C/[C@@H]1[C@@H](C/C=C\CCCC(=O)O)[C@@H](O)C[C@H]1O` [15-keto Prostaglandin F2.alpha.] as the compound, how does the “scaled lipid accumulation score” value [5] read?
Answer: inactive: ≤ 0

Question: `CN(C)c1ccc(C(=O)NCCCCCCC(=O)NO)cc1` was tested. Which “scaled lipid accumulation score” value [6] did it give?
Answer: inactive: 0.341

Question: What about the “scaled lipid accumulation score” value [1] of the same compound?
Answer: inactive: 0.617
